# According to the supplement of paper PMC8728848:
# This is one part of the list.
# B1: PpFlo3 (Pichia pastoris) (protein)
# chain: MGSSHHHHHHSSGLVPRGSHMQESGNGTTSDTAYACDIGATPFDGFNATIYQYQASDDNSIQDPVFMSTGYLQRNQLHSTTGVTNPGFNIFTAGVATTTLYGIPNVNYQNMLLELKGYFRADASGNYGLSLRNIDDSAILFFGRETAFECCNENLIPLDEAPTDYSLFTIKEGEASTNPDSYTYTQYLEAGRYYPVRTFFANIRTRAVFNFTMTLPDGSELTDFQNYIFQFGALNQ
# What was measured:
# Assay in all cases: glycan array binding signal (z-score within array); higher = stronger binding
# Settings in all cases: glycan notation: IUPAC condensed, linker removed
# [1] = molecular target: Fuc(a1-2)[Gal(a1-3)]Gal(b1-4)Glc
# Method in brief: (§1)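 From the Consortium for Functional Glycomics database, 3228 arrays were curated, keeping only those whose protein sequence was available. Binding is given as a within-array Z-score averaged across arrays sharing a protein sequence and across linkers. Negative Z-scores can be read as non-binding.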
# [2] = molecular target: Fuc(a1-2)[Gal(a1-3)]Gal(b1-4)GlcNAc
# Method in brief: as §1
# [3] = molecular target: Fuc(a1-2)[Gal(a1-3)]Gal(b1-4)GlcNAc(b1-2)Man(a1-3)[Fuc(a1-2)[Gal(a1-3)]Gal(b1-4)GlcNAc(b1-2)Man(a1-6)]Man(b1-4)GlcNAc(b1-4)GlcNAc
# Method in brief: as §1
# [4] = molecular target: Fuc(a1-2)[Gal(a1-3)]Gal(b1-4)GlcNAc(b1-2)Man(a1-3)[Fuc(a1-2)[Gal(a1-3)]Gal(b1-4)GlcNAc(b1-2)Man(a1-6)]Man(b1-4)GlcNAc(b1-4)[Fuc(a1-6)]GlcNAc
# Method in brief: as §1
# [5] = molecular target: Fuc(a1-2)[Gal(a1-3)]Gal(b1-4)GlcNAc(b1-3)GalNAc
# Method in brief: as §1
# [6] = molecular target: Fuc(a1-2)[Gal(a1-3)]Gal(b1-4)[Fuc(a1-3)]Glc
# Method in brief: as §1
# [7] = molecular target: Fuc(a1-2)[Gal(a1-3)]Gal(b1-4)[Fuc(a1-3)]GlcNAc
# Method in brief: as §1
# [8] = molecular target: Fuc(a1-2)[Gal(a1-3)]Gal(b1-4)[Fuc(a1-3)]GlcNAc(b1-3)GalNAc
# Method in brief: as §1
# [9] = molecular target: Fuc(a1-2)[Gal(a1-4)]Gal(b1-4)GlcNAc
# Method in brief: as §1
# [10] = molecular target: Fuc(a1-2)[GalNAc(a1-3)]Gal
# Method in brief: as §1
# [11] = molecular target: Fuc(a1-2)[GalNAc(a1-3)]Gal(b1-3)GalNAc(a1-3)[Fuc(a1-2)]Gal(b1-4)GlcNAc
# Method in brief: as §1
# [12] = molecular target: Fuc(a1-2)[GalNAc(a1-3)]Gal(b1-3)GlcNAc
# Method in brief: as §1
# [13] = molecular target: Fuc(a1-2)[GalNAc(a1-3)]Gal(b1-3)GlcNAc(b1-2)Man(a1-3)[Fuc(a1-2)[GalNAc(a1-3)]Gal(b1-3)GlcNAc(b1-2)Man(a1-6)]Man(b1-4)GlcNAc(b1-4)GlcNAc
# Method in brief: as §1
# [14] = molecular target: Fuc(a1-2)[GalNAc(a1-3)]Gal(b1-3)GlcNAc(b1-2)Man(a1-3)[Fuc(a1-2)[GalNAc(a1-3)]Gal(b1-3)GlcNAc(b1-2)Man(a1-6)]Man(b1-4)GlcNAc(b1-4)[Fuc(a1-6)]GlcNAc
# Method in brief: as §1
# [15] = molecular target: Fuc(a1-2)[GalNAc(a1-3)]Gal(b1-3)GlcNAc(b1-3)GalNAc
# Method in brief: as §1
# [16] = molecular target: Fuc(a1-2)[GalNAc(a1-3)]Gal(b1-4)Glc
# Method in brief: as §1
# [17] = molecular target: Fuc(a1-2)[GalNAc(a1-3)]Gal(b1-4)GlcNAc
# Method in brief: as §1
# [18] = molecular target: Fuc(a1-2)[GalNAc(a1-3)]Gal(b1-4)GlcNAc(b1-2)Man(a1-3)[Fuc(a1-2)[GalNAc(a1-3)]Gal(b1-4)GlcNAc(b1-2)Man(a1-6)]Man(b1-4)GlcNAc(b1-4)GlcNAc
# Method in brief: as §1
# [19] = molecular target: Fuc(a1-2)[GalNAc(a1-3)]Gal(b1-4)GlcNAc(b1-2)Man(a1-3)[Fuc(a1-2)[GalNAc(a1-3)]Gal(b1-4)GlcNAc(b1-2)Man(a1-6)]Man(b1-4)GlcNAc(b1-4)[Fuc(a1-6)]GlcNAc
# Method in brief: as §1
# [20] = molecular target: Fuc(a1-2)[GalNAc(a1-3)]Gal(b1-4)GlcNAc(b1-3)Gal(b1-4)GlcNAc
# Method in brief: as §1
# [21] = molecular target: Fuc(a1-2)[GalNAc(a1-3)]Gal(b1-4)GlcNAc(b1-3)Gal(b1-4)GlcNAc(b1-3)Gal(b1-4)GlcNAc
# Method in brief: as §1
# [22] = molecular target: Fuc(a1-2)[GalNAc(a1-3)]Gal(b1-4)GlcNAc(b1-3)GalNAc
# Method in brief: as §1
# [23] = molecular target: Fuc(a1-2)[GalNAc(a1-3)]Gal(b1-4)[Fuc(a1-3)]GlcNAc
# Method in brief: as §1
# [24] = molecular target: Fuc(a1-2)[GalNAc(a1-3)]Gal(b1-4)[Fuc(a1-3)]GlcNAc(b1-3)GalNAc
# Method in brief: as §1
# [25] = molecular target: Fuc(a1-2)[GalNAc(a1-4)]Gal(b1-4)GlcNAc
# Method in brief: as §1
# [26] = molecular target: Fuc(a1-2)[GalNAc(b1-3)]Gal
# Method in brief: as §1
# Fuc(a1-3)GlcNAc = molecular target: Fuc(a1-3)GlcNAc
# Method in brief: as §1
# [27] = molecular target: Fuc(a1-3)[Gal(b1-4)]Glc6S
# Method in brief: as §1
# [28] = molecular target: Fuc(a1-3)[Gal(b1-4)]GlcNAc
# Method in brief: as §1
# [29] = molecular target: Fuc(a1-3)[Gal(b1-4)]GlcNAc(b1-2)Man(a1-3)[Fuc(a1-3)[Gal(b1-4)]GlcNAc(b1-2)Man(a1-6)]Man(b1-4)GlcNAc(b1-4)GlcNAc
# Method in brief: as §1
# [30] = molecular target: Fuc(a1-3)[Gal(b1-4)]GlcNAc(b1-2)Man(a1-3)[Fuc(a1-3)[Gal(b1-4)]GlcNAc(b1-2)Man(a1-6)]Man(b1-4)GlcNAc(b1-4)[Fuc(a1-6)]GlcNAc
# Method in brief: as §1
# [31] = molecular target: Fuc(a1-3)[Gal(b1-4)]GlcNAc(b1-3)Gal(b1-3)[Fuc(a1-4)]GlcNAc
# Method in brief: as §1
# [32] = molecular target: Fuc(a1-3)[Gal(b1-4)]GlcNAc(b1-3)GalNAc
# Method in brief: as §1
# [33] = molecular target: Fuc(a1-3)[Gal(b1-4)]GlcNAc(b1-4)Gal(b1-4)[Fuc(a1-3)]GlcNAc
# Method in brief: as §1
# [34] = molecular target: Fuc(a1-3)[Gal(b1-4)]GlcNAc(b1-4)Gal(b1-4)[Fuc(a1-3)]GlcNAc(b1-4)Gal(b1-4)[Fuc(a1-3)]GlcNAc
# Method in brief: as §1
# [35] = molecular target: Fuc(a1-3)[Gal(b1-4)]GlcNAc(b1-6)GalNAc
# Method in brief: as §1
# [36] = molecular target: Fuc(a1-3)[Gal(b1-4)]GlcNAc(b1-6)[Gal(b1-3)GlcNAc(b1-3)]Gal(b1-4)Glc
# Method in brief: as §1
# [37] = molecular target: Fuc(a1-3)[Gal(b1-4)]GlcNAc(b1-6)[Neu5Ac(a2-3)Gal(b1-3)]GalNAc
# Method in brief: as §1
# [38] = molecular target: Fuc(a1-3)[Gal(b1-4)]GlcNAc6S
# Method in brief: as §1
# [39] = molecular target: Fuc(a1-3)[Gal3S(b1-4)]GlcNAc
# Method in brief: as §1
# [40] = molecular target: Fuc(a1-3)[Gal3S(b1-4)]GlcNAc6S
# Method in brief: as §1
# [41] = molecular target: Fuc(a1-3)[GalNAc(b1-4)]GlcNAc
# Method in brief: as §1
# Fuc(a1-4)GlcNAc = molecular target: Fuc(a1-4)GlcNAc
# Method in brief: as §1
# Fuc(b1-3)GlcNAc = molecular target: Fuc(b1-3)GlcNAc
# Method in brief: as §1
# Gal(a1-2)Gal = molecular target: Gal(a1-2)Gal
# Method in brief: as §1
binder,measurement,setting,value
B1,glycan array binding signal (z-score),[1],-0.275
same,glycan array binding signal (z-score),[2],-0.222
same,glycan array binding signal (z-score),[3],-0.269
same,glycan array binding signal (z-score),[4],-0.238
same,glycan array binding signal (z-score),[5],-0.284
same,glycan array binding signal (z-score),[6],-0.254
same,glycan array binding signal (z-score),[7],-0.25
same,glycan array binding signal (z-score),[8],-0.271
same,glycan array binding signal (z-score),[9],-0.129
same,glycan array binding signal (z-score),[10],-0.298
same,glycan array binding signal (z-score),[11],-0.259
same,glycan array binding signal (z-score),[12],-0.276
same,glycan array binding signal (z-score),[13],2.65
same,glycan array binding signal (z-score),[14],-0.266
same,glycan array binding signal (z-score),[15],-0.014
same,glycan array binding signal (z-score),[16],-0.268
same,glycan array binding signal (z-score),[17],-0.222
same,glycan array binding signal (z-score),[18],-0.098
same,glycan array binding signal (z-score),[19],-0.264
same,glycan array binding signal (z-score),[20],-0.27
same,glycan array binding signal (z-score),[21],-0.303
same,glycan array binding signal (z-score),[22],-0.16
same,glycan array binding signal (z-score),[23],-0.222
same,glycan array binding signal (z-score),[24],-0.229
same,glycan array binding signal (z-score),[25],-0.288
same,glycan array binding signal (z-score),[26],-0.271
same,glycan array binding signal (z-score),Fuc(a1-3)GlcNAc,-0.269
same,glycan array binding signal (z-score),[27],-0.274
same,glycan array binding signal (z-score),[28],2.18
same,glycan array binding signal (z-score),[29],-0.145
same,glycan array binding signal (z-score),[30],-0.27
same,glycan array binding signal (z-score),[31],-0.307
same,glycan array binding signal (z-score),[32],-0.21
same,glycan array binding signal (z-score),[33],2.75
same,glycan array binding signal (z-score),[34],1.69
same,glycan array binding signal (z-score),[35],-0.238
same,glycan array binding signal (z-score),[36],-0.251
same,glycan array binding signal (z-score),[37],-0.229
same,glycan array binding signal (z-score),[38],-0.294
same,glycan array binding signal (z-score),[39],-0.273
same,glycan array binding signal (z-score),[40],-0.28
same,glycan array binding signal (z-score),[41],-0.279
same,glycan array binding signal (z-score),Fuc(a1-4)GlcNAc,-0.255
same,glycan array binding signal (z-score),Fuc(b1-3)GlcNAc,-0.229
same,glycan array binding signal (z-score),Gal(a1-2)Gal,-0.243
